The other results are listed elsewhere or left out.

We go through 40 sequences from paper PMC12820563, “FoxP3 forms a head-to-head dimer in vivo and stabilizes its multimerization on adjacent microsatellites”.

The assay has as its target T1, MBP-FoxP1dN (Mus musculus, UniProt P58462 326-579).
T1 sequence: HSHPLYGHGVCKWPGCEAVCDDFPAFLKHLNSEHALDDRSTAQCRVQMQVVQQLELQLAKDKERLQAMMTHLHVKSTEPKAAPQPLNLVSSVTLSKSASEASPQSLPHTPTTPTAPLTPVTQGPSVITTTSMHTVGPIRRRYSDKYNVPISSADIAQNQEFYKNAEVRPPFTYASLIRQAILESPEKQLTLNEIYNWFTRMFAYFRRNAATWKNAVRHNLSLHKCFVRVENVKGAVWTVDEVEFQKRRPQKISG
Briefly: PD-seq (MBP pull-down with sequencing); 20 mM Tris-HCl pH 7.5, 100 mM NaCl, 1.5 mM MgCl2, 0.4 uM protein, 0.1 uM dsDNA library, 30 min, room temperature, amylose pull-down; high values mean tight binding. As to conditions: protein: recombinant; tags: His6-MBP; chain copies: 2; dsDNA, one strand shown. The procedure, abridged: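 E. coli-expressed mouse FoxP3 or FoxP1 fragment, N-terminus removed and tagged with His6-MBP, was used at 0.4 µM against 0.1 µM of a Klenow-filled degenerate double-stranded DNA library. After 30 min at room temperature in Tris pH 7.5 buffer with NaCl and MgCl2, complexes were pulled down on amylose resin and washed three times. Binding is pull-down over input reads-per-million enrichment from pooled replicates of the proteinase K-released, PCR-barcoded, Illumina-sequenced DNA.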
For “GATGATTGTTCTCCCAGCTGATGAATTCCGCAACTCGAGTAAACAAATTTTCCTAATCTTTCTGTTCAAGCGCCATCTAC”, the binding signal was 0.989 RPM ratio (pull-down/input).

For “GATGATTGTTCTCCCAGCTGATGAATTCGTCTAGTCGAGTAAACAAATTTTCCTAATCTTTCTGTTCAAGCGCCATCTAC”, the binding signal is 0.845 RPM ratio (pull-down/input).

As for “GATGATTGTTCTCCCAGCTGATGAATTCCAGATGTCGAGTAAACAAATTTTCCTAATCTTTCTGTTCAAGCGCCATCTAC”, the binding signal is 0.807 RPM ratio (pull-down/input).

For the sequence “GATGATTGTTCTCCCAGCTGATGAATTGGACGATTCGAGTAAACAAATTTTCCTAATCTTTCTGTTCAAGCGCCATCTAC”, the binding signal is 0.842 RPM ratio (pull-down/input).

On to “GATGATTGTTCTCCCAGCTGATGAATTTTGATCATCGAGTAAACAAATTTTCCTAATCTTTCTGTTCAAGCGCCATCTAC”, for which the binding signal was 1.08 RPM ratio (pull-down/input).

Take “GATGATTGTTCTCCCAGCTGATGAATTCTCTATGTCGAGTAAACAAATTTTCCTAATCTTTCTGTTCAAGCGCCATCTAC”: the binding signal was 0.833 RPM ratio (pull-down/input).

Regarding “GATGATTGTTCTCCCAGCTGATGAATTATAAGTTTCGAGTAAACAAATTTTCCTAATCTTTCTGTTCAAGCGCCATCTAC”, the binding signal is 1.02 RPM ratio (pull-down/input).

Consider “GATGATTGTTCTCCCAGCTGATGAATTACCAACGTCGAGTAAACAAATTTTCCTAATCTTTCTGTTCAAGCGCCATCTAC”, for which the binding signal is 1.07 RPM ratio (pull-down/input).

Turning to “GATGATTGTTCTCCCAGCTGATGAATTGTGGATTTCGAGTAAACAAATTTTCCTAATCTTTCTGTTCAAGCGCCATCTAC”, the binding signal is 1.08 RPM ratio (pull-down/input).

On to “GATGATTGTTCTCCCAGCTGATGAATTTGAGGGTTCGAGTAAACAAATTTTCCTAATCTTTCTGTTCAAGCGCCATCTAC”, for which the binding signal was 0.789 RPM ratio (pull-down/input).

With “GATGATTGTTCTCCCAGCTGATGAATTCAACCTGTCGAGTAAACAAATTTTCCTAATCTTTCTGTTCAAGCGCCATCTAC”, the binding signal is 0.827 RPM ratio (pull-down/input).

Turning to “GATGATTGTTCTCCCAGCTGATGAATTTTATTGATCGAGTAAACAAATTTTCCTAATCTTTCTGTTCAAGCGCCATCTAC”, the binding signal was 2.45 RPM ratio (pull-down/input).

Take “GATGATTGTTCTCCCAGCTGATGAATTTGCTGGTTCGAGTAAACAAATTTTCCTAATCTTTCTGTTCAAGCGCCATCTAC”: the binding signal was 0.997 RPM ratio (pull-down/input).

With “GATGATTGTTCTCCCAGCTGATGAATTCGTTGACTCGAGTAAACAAATTTTCCTAATCTTTCTGTTCAAGCGCCATCTAC”, the binding signal is 0.913 RPM ratio (pull-down/input).

For the sequence “GATGATTGTTCTCCCAGCTGATGAATTCTCCTTGTCGAGTAAACAAATTTTCCTAATCTTTCTGTTCAAGCGCCATCTAC”, the binding signal was 0.774 RPM ratio (pull-down/input).

On to “GATGATTGTTCTCCCAGCTGATGAATTTGGACGTTCGAGTAAACAAATTTTCCTAATCTTTCTGTTCAAGCGCCATCTAC”, for which the binding signal was 0.923 RPM ratio (pull-down/input).

Take “GATGATTGTTCTCCCAGCTGATGAATTAGCGATCTCGAGTAAACAAATTTTCCTAATCTTTCTGTTCAAGCGCCATCTAC”: the binding signal was 0.82 RPM ratio (pull-down/input).

In the case of “GATGATTGTTCTCCCAGCTGATGAATTACTGGACTCGAGTAAACAAATTTTCCTAATCTTTCTGTTCAAGCGCCATCTAC”, the binding signal was 0.911 RPM ratio (pull-down/input).

Regarding “GATGATTGTTCTCCCAGCTGATGAATTCGGAGAATCGAGTAAACAAATTTTCCTAATCTTTCTGTTCAAGCGCCATCTAC”, the binding signal was 0.901 RPM ratio (pull-down/input).

With “GATGATTGTTCTCCCAGCTGATGAATTGGGAGAGTCGAGTAAACAAATTTTCCTAATCTTTCTGTTCAAGCGCCATCTAC”, the binding signal was 0.805 RPM ratio (pull-down/input).

Take “GATGATTGTTCTCCCAGCTGATGAATTTAAGTTCTCGAGTAAACAAATTTTCCTAATCTTTCTGTTCAAGCGCCATCTAC”: the binding signal is 0.899 RPM ratio (pull-down/input).

For the sequence “GATGATTGTTCTCCCAGCTGATGAATTGTATCACTCGAGTAAACAAATTTTCCTAATCTTTCTGTTCAAGCGCCATCTAC”, the binding signal was 1.14 RPM ratio (pull-down/input).

Regarding “GATGATTGTTCTCCCAGCTGATGAATTTTATAAATCGAGTAAACAAATTTTCCTAATCTTTCTGTTCAAGCGCCATCTAC”, the binding signal was 1.13 RPM ratio (pull-down/input).

For “GATGATTGTTCTCCCAGCTGATGAATTTTGCGTCTCGAGTAAACAAATTTTCCTAATCTTTCTGTTCAAGCGCCATCTAC”, the binding signal is 0.991 RPM ratio (pull-down/input).

For the sequence “GATGATTGTTCTCCCAGCTGATGAATTGTCACACTCGAGTAAACAAATTTTCCTAATCTTTCTGTTCAAGCGCCATCTAC”, the binding signal was 1.07 RPM ratio (pull-down/input).

With “GATGATTGTTCTCCCAGCTGATGAATTTAGGAAATCGAGTAAACAAATTTTCCTAATCTTTCTGTTCAAGCGCCATCTAC”, the binding signal is 1.11 RPM ratio (pull-down/input).

As to “GATGATTGTTCTCCCAGCTGATGAATTTGTTCCGTCGAGTAAACAAATTTTCCTAATCTTTCTGTTCAAGCGCCATCTAC”, the binding signal was 1.13 RPM ratio (pull-down/input).

For “GATGATTGTTCTCCCAGCTGATGAATTAAAGGATTCGAGTAAACAAATTTTCCTAATCTTTCTGTTCAAGCGCCATCTAC”, the binding signal was 0.866 RPM ratio (pull-down/input).

As for “GATGATTGTTCTCCCAGCTGATGAATTGTATCGATCGAGTAAACAAATTTTCCTAATCTTTCTGTTCAAGCGCCATCTAC”, the binding signal was 1.02 RPM ratio (pull-down/input).

In the case of “GATGATTGTTCTCCCAGCTGATGAATTAGGAGGATCGAGTAAACAAATTTTCCTAATCTTTCTGTTCAAGCGCCATCTAC”, the binding signal was 0.888 RPM ratio (pull-down/input).

In the case of “GATGATTGTTCTCCCAGCTGATGAATTACTTTGTTCGAGTAAACAAATTTTCCTAATCTTTCTGTTCAAGCGCCATCTAC”, the binding signal is 1.1 RPM ratio (pull-down/input).

Take “GATGATTGTTCTCCCAGCTGATGAATTATTGAATTCGAGTAAACAAATTTTCCTAATCTTTCTGTTCAAGCGCCATCTAC”: the binding signal was 1.14 RPM ratio (pull-down/input).

For “GATGATTGTTCTCCCAGCTGATGAATTTGGTCCCTCGAGTAAACAAATTTTCCTAATCTTTCTGTTCAAGCGCCATCTAC”, the binding signal is 0.875 RPM ratio (pull-down/input).

Regarding “GATGATTGTTCTCCCAGCTGATGAATTCCTGCCGTCGAGTAAACAAATTTTCCTAATCTTTCTGTTCAAGCGCCATCTAC”, the binding signal is 0.766 RPM ratio (pull-down/input).

On to “GATGATTGTTCTCCCAGCTGATGAATTGAGTAGTTCGAGTAAACAAATTTTCCTAATCTTTCTGTTCAAGCGCCATCTAC”, for which the binding signal was 0.925 RPM ratio (pull-down/input).

Regarding “GATGATTGTTCTCCCAGCTGATGAATTCGTGCTATCGAGTAAACAAATTTTCCTAATCTTTCTGTTCAAGCGCCATCTAC”, the binding signal is 1.05 RPM ratio (pull-down/input).

With “GATGATTGTTCTCCCAGCTGATGAATTTATGTTGTCGAGTAAACAAATTTTCCTAATCTTTCTGTTCAAGCGCCATCTAC”, the binding signal was 2.86 RPM ratio (pull-down/input).

With “GATGATTGTTCTCCCAGCTGATGAATTTTTGTGGTCGAGTAAACAAATTTTCCTAATCTTTCTGTTCAAGCGCCATCTAC”, the binding signal is 1.23 RPM ratio (pull-down/input).

Take “GATGATTGTTCTCCCAGCTGATGAATTTAAATTATCGAGTAAACAAATTTTCCTAATCTTTCTGTTCAAGCGCCATCTAC”: the binding signal is 1.02 RPM ratio (pull-down/input).

With “GATGATTGTTCTCCCAGCTGATGAATTACGCTTCTCGAGTAAACAAATTTTCCTAATCTTTCTGTTCAAGCGCCATCTAC”, the binding signal is 0.995 RPM ratio (pull-down/input).
